For assay [1], the system named is HSkMC (human skeletal muscle cells). Put plainly: cytotoxicity call (relative viability < 0.9). The conditions noted are these: 10 µM.
Assay [2] relates to HepG2. Put plainly: cytotoxicity call (relative viability < 0.9). The conditions noted are these: 10 µM.
The subject of assay [3] is S. aureus RN4220. Put plainly: growth inhibition call (relative growth <= 0.2). The conditions noted are these: 50 µM.

The other results are listed elsewhere or left out.

Turning to `C[C@H]1CN([C@@H](C)CO)C(=O)c2cc(NS(=O)(=O)c3ccc(F)cc3)ccc2O[C@@H]1CN(C)S(C)(=O)=O`, the cytotoxicity call in assay [1] and in assay [2] was “inactive” in each case. The growth inhibition call in assay [3] is “inactive”.
`C[C@H](CO)N1C[C@H](C)[C@H](CN(C)Cc2ccncc2)Oc2cc(C#CC(C)(C)O)ccc2S1(=O)=O`: the cytotoxicity call in assay [1] and in assay [2] was “inactive” throughout. In addition, in assay [3], the growth inhibition call is “inactive”.
Take `CN1CCN(C(=O)C[C@@H]2CC[C@@H]3[C@H](COc4ccc(NC(=O)c5cscn5)cc4C(=O)N3C)O2)CC1`: the cytotoxicity call in assay [1] and in assay [2] was “inactive” in each case. For the same compound, the growth inhibition call in assay [3] was “inactive”.
With `COc1ccc(S(=O)(=O)Nc2ccc3c(c2)CC(=O)N([C@H](C)CO)C[C@H](C)[C@@H](CN(C)C)O3)cc1`, the cytotoxicity call in assay [1] and in assay [2] was “inactive” throughout. Besides, in assay [3], the growth inhibition call is “inactive”.
As to `C[C@H]1CC/C=C\[C@H]2O[C@@]34C=CCN(c5ccc(Cl)cc5)C(=O)[C@H]3N(CCO)C(=O)[C@]4(C)[C@@H]2C(=O)O1`, the cytotoxicity call in assay [1] and in assay [2] was “inactive” in each case. In assay [3], the growth inhibition call was “inactive”.
With `C[C@@H]1CCCCO[C@H](CN(C)S(=O)(=O)c2cn(C)cn2)[C@@H](C)CN([C@@H](C)CO)C(=O)c2cc(NS(=O)(=O)c3cn(C)cn3)ccc2O1`, the cytotoxicity call in assay [1] and in assay [2] was “inactive” throughout. The growth inhibition call in assay [3] was “inactive”.
In the case of `C[C@@H]1CCCCO[C@@H](CN(C)C(=O)C2CCCCC2)[C@@H](C)CN([C@@H](C)CO)C(=O)c2cc(NC(=O)Nc3ccccc3)ccc2O1`, in assay [1], the cytotoxicity call is “inactive”. Moreover, the cytotoxicity call in assay [2] was “active”. For the same compound, in assay [3], the growth inhibition call was “inactive”.
Turning to `COCCCNC(=O)[C@@]1(Sc2ccc(C)cc2)CC(=O)N(Cc2ccccc2Cl)[C@@H]1c1ccc(CO)cc1I`, the cytotoxicity call in assay [1] and in assay [2] was “inactive” each time. Further, in assay [3], the growth inhibition call is “inactive”.
In the case of `C[C@@H]1CCCCO[C@H](CN(C)C(=O)Nc2ccc3c(c2)OCO3)[C@H](C)CN([C@@H](C)CO)C(=O)c2cc(NC(=O)C3CCCCC3)ccc2O1`, the cytotoxicity call in assay [1] and in assay [2] was “inactive” in each case. In addition, the growth inhibition call in assay [3] is “inactive”.
Regarding `CC(=O)NCc1nnnn1C1CCCCC1`, the cytotoxicity call in assay [1] and in assay [2] was “inactive” throughout. Also, the growth inhibition call in assay [3] was “inactive”.
For `Oc1cccc2ccccc12`, in assay [1], the cytotoxicity call is “active”. In addition, in assay [2], the cytotoxicity call is “inactive”. Moreover, the growth inhibition call in assay [3] was “inactive”.
Take `C[C@@H](OC[C@@]1(c2ccccc2)CC[C@]2(CCC(=O)N2)CN1)c1cc(C(F)(F)F)cc(C(F)(F)F)c1`: the cytotoxicity call in assay [1] and in assay [2] was “inactive” in each case. The growth inhibition call in assay [3] is “active”.
`CN1CCN(C(=O)C[C@H]2CC[C@H]3[C@@H](COC[C@@H](O)CN3C(=O)Nc3cc(Cl)cc(Cl)c3)O2)CC1`: the cytotoxicity call in assay [1] and in assay [2] was “inactive” in each case. Moreover, the growth inhibition call in assay [3] was “inactive”.
As to `CCCCCCCCCCCCCCCCCCCCCCCCC(=O)O`, the cytotoxicity call in assay [1] and in assay [2] was “inactive” each time. The growth inhibition call in assay [3] was “inactive”.
Take `C[C@H](CO)N1C[C@H](C)[C@H](CN(C)S(=O)(=O)c2ccc(F)cc2)Oc2ccc(NS(=O)(=O)c3cn(C)cn3)cc2CC1=O`: the cytotoxicity call in assay [1] and in assay [2] was “inactive” in each case. In assay [3], the growth inhibition call was “inactive”.
Regarding `O=C1OC2(c3ccc(O)cc3Oc3cc(O)ccc32)c2ccccc21`, the cytotoxicity call in assay [1] and in assay [2] was “inactive” throughout. Also, the growth inhibition call in assay [3] is “inactive”.
In the case of `CNC(=O)Cn1c(=O)c2c(OC)c(C)cnc2n(C)c1=O`, the cytotoxicity call in assay [1] and in assay [2] was “inactive” in each case. Also, the growth inhibition call in assay [3] is “inactive”.
As for `Cc1ccc(S(=O)(=O)Nc2cccc3c2O[C@@H](CN(C)C(=O)Nc2ccc(C(F)(F)F)cc2)[C@@H](C)CN([C@@H](C)CO)C3=O)cc1`, the cytotoxicity call in assay [1] and in assay [2] was “inactive” in each case. Also, the growth inhibition call in assay [3] is “inactive”.
For the compound `C[C@@H]1CCCCO[C@@H](CN(C)S(=O)(=O)c2ccc(Cl)cc2)[C@H](C)CN([C@@H](C)CO)C(=O)c2cc(NC(=O)c3ccncc3)ccc2O1`, the cytotoxicity call in assay [1] and in assay [2] was “inactive” throughout. The growth inhibition call in assay [3] was “inactive”.
With `C[C@@H]1CN([C@H](C)CO)C(=O)CCCn2cc(nn2)CO[C@@H]1CN(C)S(=O)(=O)c1cccc(C#N)c1`, the cytotoxicity call in assay [1] and in assay [2] was “inactive” throughout. For the same compound, the growth inhibition call in assay [3] was “inactive”.
`COc1ccc(NC(=O)Nc2ccc3c(c2)C(=O)N([C@H](C)CO)C[C@H](C)[C@H](CN(C)C(=O)Nc2ccc(OC)cc2)OCCCC[C@@H](C)O3)cc1`: the cytotoxicity call in assay [1] and in assay [2] was “inactive” each time. Moreover, in assay [3], the growth inhibition call is “inactive”.
Regarding `C=CCOC(=O)[C@H]1[C@@H]2C(=O)O[C@@H](c3ccccc3)[C@@H](c3ccccc3)N2[C@@H](c2ccc(OCCOC(=O)[C@H]3C[C@H]4C(=O)N5CCC[C@H]5C(=O)N4[C@H]3c3cccc(OCCO)c3)cc2)[C@]12C(=O)Nc1ccccc12`, the cytotoxicity call in assay [1] and in assay [2] was “inactive” in each case. For the same compound, the growth inhibition call in assay [3] was “inactive”.
Take `CC1(C)OCC(CO)([N+](=O)[O-])CO1`: the cytotoxicity call in assay [1] and in assay [2] was “inactive” throughout. Also, the growth inhibition call in assay [3] was “inactive”.
For `C[C@@H]1CCCCO[C@@H](CN(C)Cc2ccccc2)[C@@H](C)CN([C@@H](C)CO)C(=O)c2cc(NC(=O)Nc3ccc(C(F)(F)F)cc3)ccc2O1`, the cytotoxicity call in assay [1] and in assay [2] was “active” in each case. The growth inhibition call in assay [3] was “inactive”.
On to `COc1ccc(S(=O)(=O)N(C)C[C@H]2OCCCC[C@@H](C)Oc3ccc(NC(=O)Nc4ccccc4)cc3C(=O)N([C@@H](C)CO)C[C@H]2C)cc1`, for which the cytotoxicity call in assay [1] and in assay [2] was “inactive” each time. Further, the growth inhibition call in assay [3] was “inactive”.

(Values after the antibiotic and cytotoxicity screens of Wong et al. (2023).)
